Our source for the Tm values is US20080311122A1, “Antagonists of Hmgb1 and/or Rage and Methods of Use Thereof” (Medimmune, LLC, priority 2005, published 2008).

A short description of this series: Differential scanning calorimetry. It counts as physicochemical. More on the design: unit: °C. The conditions noted are these: in °C (unit assumed). The protocol: Differential Scanning Calorimetry: Thermal melting temperatures (Tm) were measured with a VP-DSC (MicroCal, LLC) using a scan rate of 1.0° C./min and a temperature range of 25-120° C. A filter period of 8 seconds was used along with a 5 minute pre-scan thermostating. Samples were prepared by dialysis into 25 mM Histidine-HCl, pH 6 using Pierce dialysis cups (3.5 kD). Average Mab concentrations were 50 μg/mL as determined by A280. Melting temperatures were determined following manufacturer procedures using Origin software supplied with the system. Briefly, multiple baselines were run with buffer in both the sample and reference cell to establish thermal equilibrium. After the baseline was subtracted from the sample thermogram, the data were concentration normalized and fitted using the deconvolution function.

B1: S2: human anti-HMG1 antibody, ATCC PTA-6142; VL/VH aa SEQ ID NO: 5/7 (antibody, listed as Homo sapiens, V domains shown)
VH: EVQLLESGGGLVQPGGSLRLSCAASGFTFSGYMMVWVRQAPGKGLEWVSRISPSGGQTGYADSVKGRFTISRDNSKNTLYLQMNSLRAEDTAVYYCAREEGGSYGAFDIWGQGTMVTVSS
VL: [gap - about 100 residues]FGQGTKVEIK
As to B1, the Tm was found to be 79.2.
